Test results taken from PubChem BioAssay AID1030 (National Center for Advancing Translational Sciences (NCATS), 2008).
Out of some 220,000 compounds screened, about 16,000 (7.3%) were called active. Inconclusive means that the source gave no clear call. Such entries were picked first, then a sample of the others. Calls follow the shape of the dose curve; as a rule, active = well fitted inhibition curve with a large enough effect (not every such curve was filed as active); inconclusive = small, poorly fitted or top-dose-only effect, or another doubt; inactive = no such curve, though single readings can be large or run the other way. Potencies of inconclusive entries are left out as doubtful fits.

target: Aldehyde dehydrogenase 1A1 (Homo sapiens) (UniProt P00352); test: qHTS Assay for Inhibitors of Aldehyde Dehydrogenase 1 (ALDH1A1); settings: Purified ALDH1A1, NADH fluorescence, propionaldehyde substrate; series mostly up to 75.3 µM; activity, negative = inhibition: at the top concentration;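 as to activity, negative = inhibition: plate controls were no enzyme wells and a reference inhibitor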
UniProt P00352, sequence (P00352 whole entry, looked up): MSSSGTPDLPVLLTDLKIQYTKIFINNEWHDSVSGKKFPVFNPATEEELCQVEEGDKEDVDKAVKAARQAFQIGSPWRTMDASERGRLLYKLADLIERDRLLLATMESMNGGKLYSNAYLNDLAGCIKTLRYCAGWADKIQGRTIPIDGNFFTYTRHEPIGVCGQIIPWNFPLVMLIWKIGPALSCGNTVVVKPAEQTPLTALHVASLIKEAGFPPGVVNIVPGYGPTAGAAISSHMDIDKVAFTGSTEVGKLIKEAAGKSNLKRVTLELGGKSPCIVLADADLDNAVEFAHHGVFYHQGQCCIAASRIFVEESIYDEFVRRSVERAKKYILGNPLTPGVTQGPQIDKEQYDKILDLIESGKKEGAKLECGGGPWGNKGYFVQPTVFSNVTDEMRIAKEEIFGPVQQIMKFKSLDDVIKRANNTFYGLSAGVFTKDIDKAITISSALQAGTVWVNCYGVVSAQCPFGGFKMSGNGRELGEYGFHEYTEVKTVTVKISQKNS
Potency is read from the fitted curve at half-maximal effect; tags tell the direction and shape of the fitted curve.

Compound | activity, negative = inhibition | Potency
c1ccc(-c2c[nH]c3[n+]2CCCCC3)cc1 | inactive: 3.29% | –
COc1ccc(-n2c(=O)cc(N3CCN(c4ccccc4F)CC3)[nH]c2=O)cc1 | – | active: 3.98 µM
CCOc1ccccc1C(=O)N/N=C/c1c[nH]c2ccccc12 | inactive: 5% | –
CC(C)CC(=O)Nc1nnc(-c2ccco2)s1 | – | inconclusive [inhibitor, single point]
Cc1ccc(S(=O)(=O)c2ccc(C)cc2)cc1 | inactive: 13.4% | –
O=C(O)c1nn(CC(=O)N(C2CCCCC2)C2CCCCC2)c(=O)c2ccccc12 | inactive: 13.5% | –
CCCCc1cc(=O)oc2c(CN3CCCC3)c(O)c(Cl)cc12 | – | inconclusive [inhibitor, partial curve]
O=C(CS(=O)(=O)c1ccccc1)Nc1ccccn1 | – | inconclusive [inhibitor, single point]
CC(C)C1N=C2c3ccccc3N=C(SCc3cc(=O)n4cc(Cl)ccc4n3)N2C1=O (stereo not drawn) | – | inconclusive [inhibitor, partial curve]
COc1ccc(C2=NN(C(N)=S)C(c3ccco3)C2)cc1 (stereo not drawn) | – | active: 17.8 µM
OC(COC(c1ccccc1)c1ccccc1)CN1CCOCC1 (stereo not drawn) | inactive: 5.9% | –
CCOC(=O)N1CCC(NC(=O)C2CCN(S(=O)(=O)N3CCCC3)CC2)CC1 | – | inconclusive [inhibitor, partial curve, poor fit]
Cc1c(Cl)cccc1NC(=S)/C(=C(\[O-])c1ccc(Cl)s1)[n+]1ccccc1 | inactive: 9.42% | –
NS(=O)(=O)c1ccc(N=Nc2c(-c3ccccc3)[nH]n(-c3nc(-c4ccccc4)cs3)c2=O)cc1 | inactive: 3.9% | –
C#CCCCCCCC#CCN(C)C | – | inconclusive [inhibitor, partial curve]
O=C(CSc1nc2[nH]ncc2c(=O)n1-c1ccccc1Cl)N1CCCC1 | – | active: 31.6 µM
Cn1ncc(Cl)c(Oc2ccccc2)c1=O | inactive: 9.7% | –
Cc1ccccc1NC(=O)CNc1ccccc1N1CCCCC1 | – | inconclusive [inhibitor, single point]
COc1ccc(Cl)cc1NC(=S)NNC(=O)c1cccs1 | – | active: 10 µM
Cc1cc(C)cc(NC(=O)C(NCC2CCCO2)c2ccccc2)c1 (stereo not drawn) | inactive: -5.04% | –
COc1ccc2nc(NC(=O)C3CCN(S(=O)(=O)c4cccc5nsnc45)CC3)sc2c1 | inactive: -8.12% | –
CN(Cc1ccccc1)C(=O)c1ccc([N+](=O)[O-])o1 | – | inconclusive [inhibitor, single point]
Cc1ccc(S(=O)(=O)Nc2ccc(NC(=O)/C=C/C(=O)O)cc2)cc1 | – | active: 35.5 µM
O=C(CNCc1ccco1)Nc1ccc(Oc2ccccc2)cc1 | – | inconclusive [inhibitor, single point]
Oc1cc2c(cc1C(c1ccc(Cl)c(Cl)c1)N1CCCC1)OCO2 (stereo not drawn) | – | active: 0.794 µM

Compound | activity, negative = inhibition | Potency
CC1=C(C(=O)Nc2ccccc2)C(c2cccs2)n2nnnc2N1 (stereo not drawn) | – | active: 11.2 µM
Cc1ccccc1OCCOCCN1CCCCCC1 | – | inconclusive [inhibitor, single point]
COc1ccc(NS(=O)(=O)c2cccc3cccnc23)cc1 | inactive: -3.15% | –
Cn1ncc(Br)c1C(=O)N/N=C/c1ccc(OS(=O)(=O)c2ccccc2)cc1 | – | active: 25.1 µM
COc1ccc(N=NC2=C(O)CC(C)(C)CC2=O)c(OC)c1 | – | active: 0.282 µM
Fc1cc(F)cc(NC(=S)Nc2ccccc2N2CCOCC2)c1 | – | inconclusive [inhibitor, single point]
O=C(NCc1ccncc1)C(=O)NCC(c1ccco1)N1CCN(c2ccccc2)CC1 (stereo not drawn) | – | inconclusive [inhibitor, single point]
COC(=O)C1=CN(C)C=C(C(=O)OC)C1c1ccccc1Cl | – | inconclusive [inhibitor, partial curve]
Cc1ccccc1-n1cnc2c(sc3nc(N4CCOCC4)c4c(c32)CCCC4)c1=O | – | inconclusive [inhibitor, partial curve]
COc1ccccc1-c1cc(C(=O)N/N=C/c2sccc2C)c2ccccc2n1 | – | inconclusive [inhibitor, partial curve]
S=C1CSc2ccccc2N1 | – | inconclusive [inhibitor, single point]
CCC(C)Nc1ccc(NC(C)CC)cc1 (stereo not drawn) | – | active: 8.91 µM
OC(CNCC1CCCO1)Cn1c2ccc(Cl)cc2c2cc(Cl)ccc21 (stereo not drawn) | – | inconclusive [inhibitor, single point]
NC(=O)CN1CCCN(S(=O)(=O)c2ccc(Br)cc2)CC1 | – | inconclusive [inhibitor, single point]
c1ccc2oc(-c3ccc4nc[nH]c4c3)nc2c1 | – | inconclusive [inhibitor, single point]
CCc1ccccc1NC(=O)COc1ccc(C(=S)N2CCCC2)cc1 | – | inconclusive [inhibitor, single point]
Cc1ccc[n+](CC(=O)Nc2ccc([N+](=O)[O-])cc2Cl)c1 | – | active: 15.8 µM
N=c1n(CC(=O)c2cccc([N+](=O)[O-])c2)c2ccccc2n1Cc1ccccc1 | – | inconclusive [inhibitor, single point]
O=C1CC(/C=C/c2ccc([N+](=O)[O-])cc2)=Nc2ccccc2N1 | – | inconclusive [inhibitor, single point]
O=C(Nc1sc2c(c1C(=O)N1CCOCC1)CCCCC2)c1cccnc1 | – | active: 22.4 µM
Cc1ccc(NC2Nc3cc(C)nn3S2)c(C)c1 (stereo not drawn) | – | inconclusive [inhibitor, partial curve, poor fit]
CCOC(=O)c1cc(-c2ccccc2)sc1NC(=O)CCN1C(=O)c2ccccc2C1=O | – | inconclusive [inhibitor, single point]
O=[N+]([O-])C1=CC=C2C(=NC3(CCCCC3)N2O)C1=NCCO | – | inconclusive [inhibitor, partial curve]
CCOC(=O)C/C(C)=N\Nc1nc(-c2ccccc2)cs1 | – | inconclusive [inhibitor, single point]
COc1cccc(OCc2nc(-c3cccc([N+](=O)[O-])c3)no2)c1 | inactive: -3.3% | –

Compound | activity, negative = inhibition | Potency
Cc1nnc(NC(=O)CSc2nnc(-c3ccccc3)n2C)s1 | – | inconclusive [inhibitor, single point]
COc1cc(OC)cc(C(=O)N[C@H](C(=O)OCC(=O)Nc2cccc(F)c2)C(C)C)c1 | – | inconclusive [inhibitor, partial curve]
Cc1ccc2c(c1)-c1ccccc1S(=O)(=O)N2 | – | inconclusive [inhibitor, single point]
c1ccc(CN2CCN(c3nc(NCc4ccco4)c4ccccc4n3)CC2)cc1 | – | inconclusive [inhibitor, single point]
COc1ccc(-n2c(SCC(=O)NCc3ccco3)nc3c([nH]c4ccccc43)c2=O)cc1 | inactive: 11.5% | –
CC(C)(/C=N/NC(=O)CSCc1ccc(Cl)cc1)CCC#N | – | inconclusive [inhibitor, single point]
Cc1ccc(Oc2ncnc(N)c2[N+](=O)[O-])cc1C | – | inconclusive [inhibitor, single point]
CCN(c1ccccc1)S(=O)(=O)c1ccc(Cl)c(C(=O)NCCc2ccc(OC)cc2)c1 | – | inconclusive [inhibitor, single point]
O=C(Cn1c(/C=C/c2ccccc2)nc2ccccc21)Nc1ccc(F)cc1 | – | inconclusive [inhibitor, partial curve]
CN(C)Cc1nc(-c2cn(C)c3ccccc23)no1 | – | inconclusive [inhibitor, single point]
Fc1ccccc1NC(=S)Nc1ccc(Br)cc1 | – | inconclusive [inhibitor, single point]
CCOc1ccc(N2CC(C(=O)NCCC3=CCCCC3)CC2=O)cc1 (stereo not drawn) | – | inconclusive [inhibitor, single point]
O=C(Nc1nc(-c2ccccc2)cs1)c1ccc(N2CCOCC2)c([N+](=O)[O-])c1 | inactive: -6.28% | –
Nc1nc(SCC(=O)c2ccc(Br)s2)n[nH]1 | – | inconclusive [inhibitor, single point]
COc1cc2c(cc1OC)C1(Nc3c-2c(Cc2ccccc2)nn3-c2ccccc2)C(=O)Nc2ccccc21 (stereo not drawn) | – | inconclusive [inhibitor, full curve]
COc1cc(C(=O)Nc2ccc3oc(-c4cccnc4)nc3c2)cc(OC)c1OC | – | inconclusive [inhibitor, single point]
CCOC(=O)c1[nH]c2ccc(OC)cc2c1N=CN(C)C | – | inconclusive [inhibitor, single point]
CCOC(=O)c1ccc(NC(=O)C(=O)NCC2CCCO2)cc1 (stereo not drawn) | inactive: -15.3% | –
O=C(CN1C(=O)C2C3C=CC(C3)C2C1=O)NCCN1CCCc2ccccc21 (stereo not drawn) | – | inconclusive [inhibitor, single point]
CC(NC(=O)/C(=C\c1ccco1)NC(=O)c1ccccc1Br)C(=O)O (stereo not drawn) | inactive: 1.42% | –
CN(C)c1ccc(C2C3CCCc4ccccc4C3=NN2C)cc1 (stereo not drawn) | – | inconclusive [inhibitor, single point]
N#CCCn1c(=O)c(-c2cccc(C#N)c2)nc2cnc(Oc3ccccc3)nc21 | – | inconclusive [inhibitor, partial curve]
O=C(Nc1cccc(CCc2ccccn2)c1)c1cc(F)c(F)cc1Cl | – | inconclusive [inhibitor, single point]
